The values below come from article PMC4336329 (PLoS ONE, 2015).

Structures are written as SMILES. Out of some 310,000 compounds screened, about 2,200 (0.71%) showed an effect of 50% or more. The effect is printed as a negative number. This is one part of the list.

human ether-à-go-go-related gene (hERG) potassium channel, sequence (Q12809 whole entry, looked up): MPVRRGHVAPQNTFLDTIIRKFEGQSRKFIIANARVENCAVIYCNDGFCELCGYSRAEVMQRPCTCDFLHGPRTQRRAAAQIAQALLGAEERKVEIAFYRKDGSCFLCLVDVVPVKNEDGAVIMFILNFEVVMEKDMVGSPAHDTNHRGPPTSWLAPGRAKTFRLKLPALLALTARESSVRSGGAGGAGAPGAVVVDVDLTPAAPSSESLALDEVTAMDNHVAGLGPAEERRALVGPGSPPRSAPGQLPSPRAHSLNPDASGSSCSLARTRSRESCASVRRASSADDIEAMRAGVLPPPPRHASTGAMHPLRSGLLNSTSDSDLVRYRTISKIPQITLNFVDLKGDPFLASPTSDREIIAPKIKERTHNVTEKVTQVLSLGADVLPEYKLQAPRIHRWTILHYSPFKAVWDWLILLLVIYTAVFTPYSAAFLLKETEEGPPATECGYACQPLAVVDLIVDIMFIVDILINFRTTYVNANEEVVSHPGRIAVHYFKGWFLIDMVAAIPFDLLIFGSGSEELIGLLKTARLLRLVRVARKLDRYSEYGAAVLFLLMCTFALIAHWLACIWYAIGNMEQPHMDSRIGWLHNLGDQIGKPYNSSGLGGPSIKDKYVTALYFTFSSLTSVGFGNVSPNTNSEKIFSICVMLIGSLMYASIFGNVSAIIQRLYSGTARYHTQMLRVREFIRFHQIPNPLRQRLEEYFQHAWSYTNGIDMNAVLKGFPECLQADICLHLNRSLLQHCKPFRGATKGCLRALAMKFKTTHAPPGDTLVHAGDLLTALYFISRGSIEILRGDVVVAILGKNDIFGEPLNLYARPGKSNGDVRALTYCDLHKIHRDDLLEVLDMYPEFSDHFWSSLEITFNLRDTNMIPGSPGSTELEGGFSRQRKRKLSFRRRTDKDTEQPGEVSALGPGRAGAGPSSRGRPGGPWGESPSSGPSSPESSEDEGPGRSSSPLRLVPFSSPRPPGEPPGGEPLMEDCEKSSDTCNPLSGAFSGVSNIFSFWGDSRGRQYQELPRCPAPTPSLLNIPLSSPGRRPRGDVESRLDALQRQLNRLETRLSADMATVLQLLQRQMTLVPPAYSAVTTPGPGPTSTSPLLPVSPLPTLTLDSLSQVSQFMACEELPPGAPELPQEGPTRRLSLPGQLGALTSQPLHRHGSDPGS

This assay has as its target human ether-à-go-go-related gene (hERG) potassium channel (human, UniProt Q12809). Briefly: primary screen, population patch clamp on CHO cells stably expressing hERG.
On to `O=C(CN1C(=O)C2CCCCC2C1=O)OCn1nnc2ccccc2c1=O` (centres unmarked), for which the “hERG current change (%, negative = inhibition) at 1uM” value came out at 1.7%.
In the case of `O=[N+]([O-])c1cccc(-c2c[n+]3c(n2-c2ccccc2)SCC3)c1.[Br-]` it was -3.79%; in that of `COc1ccc(-c2nc(CSCC(=O)NC3CCCC3)c(C)o2)cc1OC`, 11.7%.
As to `Cc1ccc(NC(=O)c2ccc(C)c(NC3=NC4CS(=O)(=O)CC4S3)c2)cc1C` (centres unmarked), the “hERG current change (%, negative = inhibition) at 1uM” value is 3.92%.
As to `Nc1nc(-c2cccs2)c(NC(=O)c2ccccc2)s1`, the “hERG current change (%, negative = inhibition) at 1uM” value was found to be 12.6%.
Consider `COc1cc(/C=C2\C(=O)NC(=O)N(c3ccccc3)C2=O)cc(OC)c1O`, for which the “hERG current change (%, negative = inhibition) at 1uM” value is 5.98%.
As for `O=C(Cn1cnc2c(cnn2-c2ccccc2)c1=O)N1CCOCC1`, the “hERG current change (%, negative = inhibition) at 1uM” value was found to be 9.92%.
The value for `NC(=O)Cn1cnc2c(nnn2-c2cccc(Cl)c2)c1=O` was 13.8%; that for `COC(=O)c1cc(NC(=O)Cc2cccs2)cc(C(=O)OC)c1` was 18%; that for `O=C(N1CCCCC1)N1CCC(c2nc3ccccc3[nH]2)CC1` was 18%.
In the case of `C/C(=N\NC(=O)c1nnn(-c2nonc2N)c1CN(C)c1ccccc1)c1ccccn1` it was 19.2%.
In the case of `COc1ccccc1NC(=O)c1sc(NC(=O)c2ccco2)c(C#N)c1C` it was 17%.
For the molecule `CCc1nnc(NC(=O)c2ccc(OC)c(S(=O)(=O)N3CCCC3)c2)s1`, the “hERG current change (%, negative = inhibition) at 1uM” value was 8.25%.
With `COc1ccc(CCNC(=O)C(=O)NCC2OCCN2S(=O)(=O)c2cc(F)ccc2F)cc1OC` (centres unmarked), the “hERG current change (%, negative = inhibition) at 1uM” value amounted to 5.67%.
In the case of `Cc1cc(=O)c(C(=O)O)cn1Nc1ccc(Cl)cc1` it was 7.33%; in that of `O=C(NCCO)c1cccc(Cl)c1`, 15.1%.
Consider `CCCCCCCC(=O)Nc1cc(C(=O)NCCC)ccc1N1CCC2(CC1)CC(c1cccc(Br)c1)=NO2`, for which the “hERG current change (%, negative = inhibition) at 1uM” value is given as 15.8%.
In the case of `Cc1c(NC(=S)N/N=C/c2ccc([N+](=O)[O-])cc2O)c(=O)n(-c2ccccc2)n1C` it was 1.14%.
In the case of `CC12CCC(C(=O)Nc3nc4ccccc4s3)(OC1=O)C2(C)C` (centres unmarked) it was 16.8%; in that of `COc1cccc(/C=N/NC(=O)CC(=O)NCCc2ccccc2)c1OC`, 12.4%; in that of `Cc1nn(S(=O)(=O)c2ccccc2)c(C)c1S(=O)(=O)N1CCC(C)CC1`, 12.6%.
In the case of `CC1CCN(c2oc(-c3ccccc3Cl)nc2C#N)CC1` it was 7.39%.
`O=S(=O)(Nc1nnc(-c2ccccc2)s1)c1ccc(Cl)cc1`: the “hERG current change (%, negative = inhibition) at 1uM” value is -0.242%.
For `CCc1cccc(NC(=O)C2CCN(S(=O)(=O)c3ccc4c(c3)NC(=O)CO4)CC2)c1`, the “hERG current change (%, negative = inhibition) at 1uM” value is recorded as 4.07%.
In the case of `CCc1cc(S(=O)(=O)N2CCN(C(=O)c3ccco3)CC2)ccc1OC` it was 7.07%.
In the case of `c1csc(-c2ccnc3ncnn23)c1` it was 11.2%; in that of `Cc1csc(NC(=O)CSc2nnc(Cn3c(=O)sc4ccccc43)n2-c2ccccc2)n1`, -3.56%; in that of `Cc1ccc2cc(C#N)c(N3CCCN(S(=O)(=O)c4ccccc4)CC3)nc2c1`, 6.64%.
As to `COc1ccc(Nc2cc(C(=O)NCCCN3CCOCC3)c3ccccc3n2)cc1`, the “hERG current change (%, negative = inhibition) at 1uM” value worked out at 13.9%.
For the molecule `COc1cccc(C(=O)c2c(C)c(CCC#N)n3ccccc23)c1`, the “hERG current change (%, negative = inhibition) at 1uM” value is recorded as 1.83%.
In the case of `CCN1C(=O)c2cccc3c(S(=O)(=O)N(C(=O)c4ccncc4)c4ccc(OC)cc4)ccc1c23` it was 7.02%.
In the case of `O=C(NCc1ccc(OC(F)(F)F)cc1)c1cc(-c2ccccc2)nn1CC1CC(c2cccnc2)=NO1` (centres unmarked) it was 9.37%; in that of `COc1cc2c(cc1OC)C(C)N(C(=O)[C@@H](NC(=O)c1ccccc1)C(C)C)CC2` (some centres unmarked), 5.54%; in that of `C=CCNC(=O)c1scc2c1CCCC2`, 14.3%.
Turning to `CC(=O)Nc1ccc(S(=O)(=O)Oc2ccc(C(=S)N3CCC(O)CC3)cc2)cc1`, the “hERG current change (%, negative = inhibition) at 1uM” value is recorded as -2.29%.
Regarding `Cc1cc(C)c(C)c(S(=O)(=O)N2CCC(C(=O)N3CC(C)CC(C)C3)CC2)c1C` (centres unmarked), the “hERG current change (%, negative = inhibition) at 1uM” value is 3.62%.
For the molecule `CC(=O)c1ccc(NC(=S)NN2C(C)CCCC2C)cc1` (centres unmarked), the “hERG current change (%, negative = inhibition) at 1uM” value was found to be 1.9%.
For the molecule `CC(C)(C)c1cc(CCC(=O)NN)cc(C(C)(C)C)c1O`, the “hERG current change (%, negative = inhibition) at 1uM” value is -0.142%.
In the case of `CC1Cc2ccccc2N1C(=O)CSc1nc2cc3c(cc2cc1C#N)OCO3` (centres unmarked), the “hERG current change (%, negative = inhibition) at 1uM” value came out at 10.1%.
In the case of `O=c1[nH]c(C2CCN(S(=O)(=O)c3ccc(C(F)(F)F)cc3)CC2)nc2c1nnn2Cc1ccc(F)cc1`, the “hERG current change (%, negative = inhibition) at 1uM” value was found to be 3.1%.
In the case of `COc1cccc(CNC2CN3CCC2CC3)c1OC.Cl` (centres unmarked) it was 14.5%.
With `CN(C(=O)COC(=O)c1ccccc1SCC(=O)N1CCCC1)C1(C#N)CCCCC1`, the “hERG current change (%, negative = inhibition) at 1uM” value came to 9.14%.
The value for `O=C(CO/N=C/c1ccccc1)N1c2ccccc2Oc2ccccc21` was 4.8%; that for `CCOC(=O)c1sc(NC(=O)Nc2ccc(Cl)cc2)nc1C` was 11.5%; that for `CCSc1ccccc1C(=O)NCc1ccc(S(N)(=O)=O)cc1` was 4.41%.
The value for `CC(C)NC(=O)NNC(=O)Cn1nnc(-c2cccc(Cl)c2Cl)n1` was 13.5%.
As for `Cc1ccccc1-n1cnnc1SCC(=O)Nc1cccnc1Cl`, the “hERG current change (%, negative = inhibition) at 1uM” value was 10.1%.
As for `Cn1cccc1/C=C1\SC(=Nc2ccc(O)cc2)NC1=O`, the “hERG current change (%, negative = inhibition) at 1uM” value is -0.0487%.
On to `Cl.OC(COc1ccc2c(c1)OCO2)CN1CCc2ccccc2C1` (centres unmarked), for which the “hERG current change (%, negative = inhibition) at 1uM” value is on record as -19%.
For `CC(C)=CCc1c(O)c(CC=C(C)C)c2c(c1O)C(=O)CC(c1ccc(O)cc1)O2` (centres unmarked), the “hERG current change (%, negative = inhibition) at 1uM” value was found to be 11.5%.
Take `C=CCNC(=O)/C(=C/c1ccc(Br)cc1)NC(=O)c1ccccc1OC`: the “hERG current change (%, negative = inhibition) at 1uM” value was -15.5%.
In the case of `CC(C)c1ccccc1OCC(=O)N1CCCN(C)CC1` it was -13%.
The value for `COc1ccc(NC(=O)CC2(CC(=O)N3CCOCC3)CCCC2)cc1Cl` was -4.37%; that for `COC(=O)C1=C(c2ccc3ccccc3c2)C[C@@H]2CC[C@H]1N2C(=O)N1CCC(O)CC1` was 9.93%.
As for `O=C(O)CCCN1C(=O)C2C3CCC(O3)C2C1=O` (centres unmarked), the “hERG current change (%, negative = inhibition) at 1uM” value worked out at 12.1%.
The value for `O=C(Cc1n[nH]c(=O)c2ccccc12)N1CCN(c2ccc(F)cc2)CC1` was -4.24%; that for `CCOC(=O)C1CCN(C(=O)Cc2c(C(=O)O)n(C)c3ccccc23)CC1` was 2.08%; that for `Cc1nnsc1C(=O)NCc1c(F)cccc1Cl` was 12.3%.
The value for `CCOc1ccc(NC(=O)/C(=C\c2ccc(OC(C)=O)c(OC)c2)NC(C)=O)cc1` was 10.8%; that for `O=C(N/N=C/c1ccco1)C(O)C(O)C(=O)N/N=C/c1ccco1` (centres unmarked) was 15.8%; that for `CCCCC#Cc1ccc(C(=O)NNC(=O)Nc2cc(Cl)cc(Cl)c2)o1` was 7.86%.
As to `COc1cc(/C=C2\SC(=Nc3ccccc3)N(CCc3c[nH]c4ccccc34)C2=O)ccc1OC(C)C(=O)O` (centres unmarked), the “hERG current change (%, negative = inhibition) at 1uM” value is 16.6%.
Consider `Cc1c(CN(C)C(=O)c2ccc(Br)o2)cnn1C`, for which the “hERG current change (%, negative = inhibition) at 1uM” value was found to be 3.38%.
Turning to `CCCN(CCC)Cc1c(C(=O)N/N=C/c2ccncc2)nnn1-c1nonc1N`, the “hERG current change (%, negative = inhibition) at 1uM” value is reported as -30.7%.
As for `CC(C)(C)c1ccc(OCc2ccc(C(=O)N3CCOCC3)o2)cc1`, the “hERG current change (%, negative = inhibition) at 1uM” value was 2.68%.
In the case of `Cc1c(C(=O)NC2CCOC2)oc2c(F)cccc12` (centres unmarked), the “hERG current change (%, negative = inhibition) at 1uM” value is reported as 54%.
With `O=C(CN1C(=O)CCS(=O)(=O)c2ccccc21)Nc1cccc(Cl)c1`, the “hERG current change (%, negative = inhibition) at 1uM” value was 1.59%.
Turning to `O=C(CN1C(=O)C2CC=C(Cl)CC2C1=O)Nc1ccc(C(=O)O)cc1` (centres unmarked), the “hERG current change (%, negative = inhibition) at 1uM” value worked out at 5.85%.
Turning to `Cc1onc(C(=O)NN)c1-c1csc(COc2ccccc2)n1`, the “hERG current change (%, negative = inhibition) at 1uM” value is given as 4.25%.
As to `CCC(C)[C@H](NC(=O)[C@@H]1CSC2c3ccccc3C(=O)N21)C(=O)NCc1ccco1` (some centres unmarked), the “hERG current change (%, negative = inhibition) at 1uM” value is 16%.
The value for `Cc1ccc2nc(NC(=O)C3CCN(S(=O)(=O)c4cccnc4)CC3)sc2c1` was 12.8%; that for `CCOc1cnc(-c2c(-c3c(F)cccc3Cl)noc2C)o1` was 13.5%; that for `COC(=O)c1cc(NS(=O)(=O)c2ccc(OC)c(OC)c2)ccc1Cl` was 8.4%.
Consider `COc1ccc(S(=O)(=O)N2CC(=O)Nc3ccccc32)cc1F`, for which the “hERG current change (%, negative = inhibition) at 1uM” value was 19.7%.
In the case of `Cc1ccccc1-n1c(O)c(/C=N/N2CCOCC2)c(=O)[nH]c1=S` it was 8.92%; in that of `COc1cc(/C=C2\C(=O)NN(c3ccc(C)cc3)C2=O)cc([N+](=O)[O-])c1O`, 13%; in that of `O=C(Nc1ccc2c(c1)OCCO2)c1oc2ccccc2c1NC(=O)C1CC1`, 9.3%.
The value for `CN(c1ccccc1)S(=O)(=O)c1ccc(NC(=O)c2ccc(F)cc2)cc1` was 10.8%.
In the case of `COc1cccc(CN(C)C(=O)/C=C/c2ccc(S(=O)(=O)N3CCCCCC3)cc2)c1` it was -2.27%; in that of `COCc1cc(C)nc(SCC(=O)Nc2cccc3cccnc23)c1C#N`, 8.27%; in that of `C/C(Cc1ccccc1)=N\NC(=O)CNC(=O)c1ccc(C(C)(C)C)cc1`, 4.69%.
As for `Cc1ccc(NCC(=O)N/N=C/c2cccc(Oc3ccccc3)c2)cc1`, the “hERG current change (%, negative = inhibition) at 1uM” value was determined as 18.2%.
Regarding `FC(F)(F)c1cccc(CNC2c3ccccc3-c3ccccc32)c1.O=C(O)C(=O)O`, the “hERG current change (%, negative = inhibition) at 1uM” value was found to be 13.9%.
In the case of `Cc1c(C(=O)N/N=C/c2ccc(-c3ccccc3[N+](=O)[O-])o2)sc(N)c1C#N` it was 9.16%; in that of `Cc1ccc(S(=O)(=O)NC(CC(C)C)C(=O)N2CCCC2)cc1` (centres unmarked), 10.1%.
As for `O=C1CCN(Cc2nc(-c3ccc(Cl)cc3)no2)CCN1`, the “hERG current change (%, negative = inhibition) at 1uM” value is reported as 5.25%.
